{
  "source": "PubChem BioAssay AID2451",
  "about": "(National Center for Advancing Translational Sciences (NCATS), 2010)",
  "note": "Screen size: about 290,000 compounds; about 2,100 (0.72%) were called active. This list was built around the results that the source calls inconclusive (neither active nor inactive); the mix of calls is not that of the screen. Calls come from the whole dose curve; as a rule, active = well fitted inhibition curve with a large enough effect; inconclusive = small, poorly fitted or top-dose-only effect, or effect the other way; inactive = flat fitted curve, though single readings scatter. Where the call is inconclusive, the potency comes from a doubtful curve fit. % is set by controls: 0 for no effect and ±100 for the full control effect; potency is the fitted concentration of half-maximal effect; tags give direction and shape of the fitted curve.",
  "data": [
    {"target": "Fructose-bisphosphate aldolase (Giardia intestinalis (strain ATCC 50803 / WB clone C6)) (UniProt A8B2U2)", "sequence (A8B2U2 whole entry, looked up)": "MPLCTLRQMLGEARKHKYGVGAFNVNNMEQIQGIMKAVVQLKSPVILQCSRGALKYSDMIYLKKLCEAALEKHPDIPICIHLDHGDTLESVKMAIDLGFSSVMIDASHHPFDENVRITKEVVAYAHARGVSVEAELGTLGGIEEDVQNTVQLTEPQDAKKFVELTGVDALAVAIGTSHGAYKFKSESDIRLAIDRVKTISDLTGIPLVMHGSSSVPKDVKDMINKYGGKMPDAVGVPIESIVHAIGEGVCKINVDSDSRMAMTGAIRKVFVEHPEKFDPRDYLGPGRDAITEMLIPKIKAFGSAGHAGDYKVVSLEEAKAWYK", "assay": "qHTS Assay for Inhibitors of Fructose-1,6-bisphosphate Aldolase from Giardia Lamblia; note: nearly all actives have a fitted effect of over 55% in size", "conditions": "purified Giardia FBPA; activity, negative = inhibition: at 59.6 µM (top of the series) unless noted", "summary_of_the_method": "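Giardia FBPA (40 nM reagent) was preincubated 10 min at RT with compound (up to 57.5 uM final), then substrate plus GAPDH/TPI/NAD/arsenate coupling system with diaphorase/resazurin was added; resorufin fluorescence (525/598 nm) was read after 20 min.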", "values": [
      {"smiles": "COc1cc(C2Nc3cccc4cccc(c34)N2)cc(OC)c1OC(C)=O", "Potency": "inconclusive: 1.77 µM [inhibitor, full curve]"},
      {"smiles": "N#CC1=C(N)N(c2ccc(F)cc2)C2=C(C1c1ccc(O)cc1)S(=O)(=O)CC2", "note": "(stereo not drawn)", "Potency": "inconclusive: 19.9 µM [inhibitor, partial curve]"},
      {"smiles": "NS(=O)(=O)c1ccc(CCNCc2ccccc2OCc2ccc(Cl)cc2)cc1", "Potency": "inconclusive: 28.2 µM [inhibitor, partial curve]"},
      {"smiles": "CC(C)CCSc1nc2c(c(=O)[nH]c(=O)n2C)n1CCCc1ccccc1", "activity, negative = inhibition": "inactive: 22.7%"},
      {"smiles": "COc1ccc2[nH]c(C)c(CCN3CCC(=O)C(C)C3C)c2c1", "note": "(stereo not drawn)", "Potency": "inconclusive: 17.7 µM [inhibitor, single point]"},
      {"smiles": "CCOCCCNC(=O)C(=O)NCCCOCC", "Potency": "inconclusive: 6.29 µM [activator, single point]"},
      {"smiles": "O=[N+]([O-])c1cc(S(=O)(=O)C(F)(F)F)ccc1Sc1nc2ccccc2s1", "activity, negative = inhibition": "inactive: -13%"},
      {"smiles": "O=C(O)c1ccccc1-c1ccccc1C(=O)Nc1nc2ccccc2s1", "Potency": "inconclusive: 15.8 µM [activator, partial curve]"},
      {"smiles": "Cc1c(N2C(=O)/C(=C\\c3ccccc3O)SC2=S)c(=O)n(-c2ccccc2)n1C", "Potency": "inconclusive: 17.7 µM [inhibitor, single point]"},
      {"smiles": "O=C(COc1ccc(C(=S)N2CCOCC2)cc1Cl)Nc1ccccc1Cl", "Potency": "inconclusive: 11.2 µM [inhibitor, partial curve]"},
      {"smiles": "O=[N+]([O-])c1ccc(/C=N/Nc2nc3ccccc3o2)cc1", "Potency": "inconclusive: 20 µM [inhibitor, partial curve]"},
      {"smiles": "COc1ccc(-c2nc(NC(=O)c3ccc(OCC(=O)Nc4ccc(F)cc4)c(OC)c3)sc2C)cc1", "activity, negative = inhibition": "inactive: 1.42%"},
      {"smiles": "COc1ccc(Br)c(C(=O)Nc2nc3ccccc3[nH]2)c1", "Potency": "inconclusive: 31.6 µM [inhibitor, single point]"},
      {"smiles": "O=[N+]([O-])c1ccc(C2Nc3cccc4cccc(c34)N2)cc1", "Potency": "inconclusive: 1.77 µM [inhibitor, full curve, poor fit]"},
      {"smiles": "O=C1C=C(Nc2ccccc2)C(=O)c2ccccc21", "Potency": "inconclusive: 3.54 µM [inhibitor, partial curve]"},
      {"smiles": "COc1ccc(CN2C(=O)Cc3c2nc(N)c2c(N)nc(N4CCCCC4)c(C#N)c32)cc1", "Potency": "inconclusive: 7.92 µM [inhibitor, partial curve]"},
      {"smiles": "COc1ccc(N2CCN(CC(=O)Nc3cccc(S(=O)(=O)N4CCOCC4)c3)CC2)cc1", "Potency": "inconclusive: 14.1 µM [inhibitor, partial curve]"},
      {"smiles": "CC(C(=O)Nc1cccc([N+](=O)[O-])c1)n1nnc2ccccc21", "note": "(stereo not drawn)", "activity, negative = inhibition": "inactive: 4.03%"}
    ]}
  ]
}
